Consider 50 sequences from the supplement of paper PMC12645437, “Orthogonal IMiD-Degron Pairs Induce Selective Protein Degradation in Cells” (ACS Chemical Biology, 2025).

Some of the results follow.
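Note: jurkat cells carrying a lentiviral library of mutant zinc finger degrons fused to EGFP plus mCherry, mCherry+ cells FACS sorted, degron abundance counted by next-generation sequencing.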

This assay concerns the target no compound (DMSO). Nature of the assay: log2 fold change of degron read counts, EGFP-low vs EGFP+ sorted cells; higher = lower degron-EGFP level without compound (poor expression or instability). The conditions noted are these: compound: DMSO control; 18 h.
Take FHCEICGREFTQKGNLLRHIKL: the “log2 fold change of degron read counts” value is -1.51. Consider FICNVCGALFTQKGNLLRHIKL, for which the “log2 fold change of degron read counts” value is -0.44. FSCEICGAIFTQKGNLLRHIKL: the “log2 fold change of degron read counts” value is -0.305.

For FACPQCGAQFTQKGNLLRHIKL, the “log2 fold change of degron read counts” value is -1.13.

Consider FQCEICGHRFTQKGNLLRHIKL, for which the “log2 fold change of degron read counts” value is -1.55. The same measure for FLCNVCGANFTQKGNLLRHIKL: -0.724; for FCCEICGRGFTQKGNLLRHIKL: -0.32; for FKCEICGHLFTQKGNLLRHIKL: -1.56. As for FECPQCGAIFTQKGNLLRHIKL, the figure is 0.0482; as for LWCEICGFTCTQKGNLLRHIKL, 1.02. As for LECPICGFTCTQKGNLLRHIKL, the “log2 fold change of degron read counts” value is -0.383. As for FNCPVCGAKFTQKGNLLRHIKL, the figure is -0.0798. In the case of FHCEICGRWFTQKGNLLRHIKL, the “log2 fold change of degron read counts” value was -0.4. As for FICEVCGALFTQKGNLLRHIKL, the figure is -0.722. Regarding FFCEICGHIFTQKGNLLRHIKL, the “log2 fold change of degron read counts” value worked out at 1.03. On to FDCNVCGARFTQKGNLLRHIKL, for which the “log2 fold change of degron read counts” value was -0.858. The same measure for LVCNQCGFSCTQKGNLLRHIKL: 0.0792. Take FDCEQCGAQFTQKGNLLRHIKL: the “log2 fold change of degron read counts” value was -1.66.

FDCPICGRTFTQKGNLLRHIKL: the “log2 fold change of degron read counts” value was -0.82.

For the sequence FWCEICGHIFTQKGNLLRHIKL, the “log2 fold change of degron read counts” value is 1.1. As for FHCEICGHQFTQKGNLLRHIKL, the figure is -1.79; as for FVCDICGAQFTQKGNLLRHIKL, -2.96; as for FICPICGHAFTQKGNLLRHIKL, 0.119. The same measure for FTCPICGAMFTQKGNLLRHIKL: -0.141; for FMCNVCGAEFTQKGNLLRHIKL: -1.28; for FTCDVCGALFTQKGNLLRHIKL: -0.923. FDCPQCGACFTQKGNLLRHIKL: the “log2 fold change of degron read counts” value was -1.52. As for FDCEVCGAVFTQKGNLLRHIKL, the figure is -1.19; as for FECEVCGAMFTQKGNLLRHIKL, -2.1.

As for FSCPVCGADFTQKGNLLRHIKL, the “log2 fold change of degron read counts” value is -0.96. For FTCNICGAPFTQKGNLLRHIKL, the “log2 fold change of degron read counts” value was determined as 0.17.

With FQCPICGRYFTQKGNLLRHIKL, the “log2 fold change of degron read counts” value is 0.361. In the case of FWCEQCGANFTQKGNLLRHIKL, the “log2 fold change of degron read counts” value was -0.927. For the sequence LWCPICGFVCTQKGNLLRHIKL, the “log2 fold change of degron read counts” value came out at 2.59.

With FQCNQCGRDFTQKGNLLRHIKL, the “log2 fold change of degron read counts” value is -0.815. As for FRCNQCGRHFTQKGNLLRHIKL, the “log2 fold change of degron read counts” value was -0.0436. Consider FICNICGATFTQKGNLLRHIKL, for which the “log2 fold change of degron read counts” value was -1.13. As for FACNQCGHWFTQKGNLLRHIKL, the figure is 1.16; as for FACPVCGAPFTQKGNLLRHIKL, 0.515; as for FDCPVCGAFFTQKGNLLRHIKL, -0.945.

Turning to FRCPVCGASFTQKGNLLRHIKL, the “log2 fold change of degron read counts” value was -0.44.

In the case of FACEQCGAWFTQKGNLLRHIKL, the “log2 fold change of degron read counts” value was -0.819. The same measure for LVCNQCGFECTQKGNLLRHIKL: -0.807; for FQCEICGAIFTQKGNLLRHIKL: -0.867. As for FQCEICGHKFTQKGNLLRHIKL, the “log2 fold change of degron read counts” value was -1.92.

Regarding LMCPICGFECTQKGNLLRHIKL, the “log2 fold change of degron read counts” value stood at 0.319.

Turning to LFCNQCGFQCTQKGNLLRHIKL, the “log2 fold change of degron read counts” value amounted to 0.498. On to FQCNQCGHGFTQKGNLLRHIKL, for which the “log2 fold change of degron read counts” value was -0.363.

As to FDCNQCGAPFTQKGNLLRHIKL, the “log2 fold change of degron read counts” value is 0.141. The same measure for FLCDQCGATFTQKGNLLRHIKL: -1.89.
